Our source for the GI50 and TGI values is PubChem BioAssay (NCI).

Molecules are shown by their SMILES.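 Protocol summary: plate cells (96-well), add compound at 5 concentrations, incubate 48 h, interpolate endpoints linearly. GI50 is the concentration that inhibits growth by half. TGI marks complete inhibition of growth.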 Peptide text beside a SMILES is read from it.

The assay concerns NCI-H322M lung. Nature of the assay: inhibition of tumour cell growth, NCI panel, 48 h.
With `COc1ccc(-c2nnc(SCc3ccc(O)c4ncccc34)n2-c2ccccc2)cc1`, the GI50 was 955 nM and the TGI was above 63100 nM.
Taken in the same sequence, the figures for `COc1cc(NC2=C(Cl)C(=O)c3nc(C)ccc3C2=O)cc(OC)c1` were 3420 nM and 12800 nM.
In the same order, the values of `C=C(C)[C@@H]1CC[C@]2(COC)CC[C@]3(C)[C@H](CC[C@@H]4[C@@]5(C)CCCNC(C)(C)[C@@H]5CC[C@]43C)[C@@H]12` are 1590 nM and 2950 nM.
For `CC[C@@](C)(NC(=O)C(C)(C)NC(=O)[C@@H](NC(=O)[C@@H]1CCCN1C(=O)C(C)(C)NC(=O)[C@H](CC(C)C)NC(=O)CNC(=O)C(C)(C)NC(=O)[C@@H](NC(=O)C(C)(C)NC(=O)[C@H](CCC(N)=O)NC(=O)[C@H](C)NC(=O)C(C)(C)NC(=O)[C@H](C)NC(=O)C(C)(C)NC(=O)[C@H](C)NC(=O)C(C)(C)NC(C)=O)C(C)C)C(C)C)C(=O)N[C@@H](CCC(N)=O)C(=O)N[C@@H](CCC(N)=O)C(=O)N[C@H](CO)CC1CCCCC1` (HELM PEPTIDE1{[ac].[Aib].A.[Aib].A.[Aib].A.Q.[Aib].V.[Aib].G.L.[Aib].P.V.[Aib].[CC[C@@](C)(N[*:1])C(=O)[*:2]].Q.Q.[OC[C@H](CC1CCCCC1)N[*:1]]}$$$$V2.0), the GI50 is 2080 nM and the TGI is above 5000 nM.
In the same order, the values of `O=[N+]([O-])c1ccc(-c2nnc(SCc3ccc(O)c4ncccc34)o2)cc1` are 1180 nM and above 100000 nM.
